Consider one molecule from patent publication US20260042854A1, “ANTI-GLP-1R ANTIBODIES AND USES THEREOF” (SCIWIND BIOSCIENCES USA CO., LTD, priority 2022, published 2026).

The target in experiment [1] is monkey GLP-1R (JN033215.1) on HEK293 cells (monkey). As to the kind of experiment: cell-based or functional assay.
Experiment [2] concerns the target hGLP-1R on the cell membrane (HEK293 cells overexpressing hGLP-1R) (human) (UniProt P43220). Kind of experiment: cell-based or functional assay.
Chain of UniProt P43220 (P43220 24-463): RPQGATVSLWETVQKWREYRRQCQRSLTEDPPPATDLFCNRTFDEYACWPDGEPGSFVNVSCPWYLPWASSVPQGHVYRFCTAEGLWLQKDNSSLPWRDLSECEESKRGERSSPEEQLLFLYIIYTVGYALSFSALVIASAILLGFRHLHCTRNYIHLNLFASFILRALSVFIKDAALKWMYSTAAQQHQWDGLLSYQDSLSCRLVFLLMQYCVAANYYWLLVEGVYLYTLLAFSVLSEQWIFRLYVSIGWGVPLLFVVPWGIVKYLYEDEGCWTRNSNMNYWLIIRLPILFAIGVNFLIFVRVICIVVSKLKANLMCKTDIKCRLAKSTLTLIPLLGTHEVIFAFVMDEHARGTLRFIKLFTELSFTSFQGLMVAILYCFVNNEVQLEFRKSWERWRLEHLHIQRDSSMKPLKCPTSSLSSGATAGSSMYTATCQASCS

B1: P16888 (antibody, human IgG4 S228P, kappa)
heavy: QVQLVQSGAEMKKPGASVKVSCKTSGYRFSTYVISWVRQTPGQGLEWMGWISPYTGDIDYAQKFQGRVTITADESTSTAYMELSRLRSDDTAVYYCAREREGYNFPGMDVWGQGTTVTVSSASTKGPSVFPLAPCSRSTSESTAALGCLVKDYFPEPVTVSWNSGALTSGVHTFPAVLQSSGLYSLSSVVTVPSSSLGTKTYTCNVDHKPSNTKVDKRV[human IgG4 Fc with S228P (EU numbers) not listed]
light: DIQLTQSPSFLSASVGDRVTITCRASQGISSYLAWYQQKPGRAPKLLIYSASTLQRGVPSRFSGSGSGTDFTLTISSLQPEDYATYYCQQAESFPPSFGPGTKVDIKRTVAAPSVFIFPPSDEQLKSGTASVVCLLNNFYPREAKVQWKVDNALQSGNSQESVTEQDSKDSTYSLSSTLTLSKADYEKHKVYACEVTHQGLSSPVTKSFNRGEC
With B1, the IC50, inhibition of GLP-1 (2.5 ng/mL) activity in monkey GLP-1R-CRE-Luciferase-HEK293 reporter gene assay in experiment [1] worked out at 15.3 nM. In experiment [2], this molecule registered an Average IC50, nM; hGLP-1R-CRE-Luciferase-HEK293 reporter gene assay; antibody in PBS pH 5.5 at 40 C, Day 0 of 6.8 nM; an Average IC50, nM; hGLP-1R-CRE-Luciferase-HEK293 reporter gene assay; antibody in PBS pH 5.5 at 40 C, Day 10 of 5.9 nM; an Average IC50, nM; hGLP-1R-CRE-Luciferase-HEK293 reporter gene assay; antibody in PBS pH 5.5 at 40 C, Day 20 of 6.7 nM; an Average IC50, nM; hGLP-1R-CRE-Luciferase-HEK293 reporter gene assay; antibody in PBS pH 5.5 at 40 C, Day 30 of 7.4 nM. In addition, in experiment [2], the Average IC50, nM; hGLP-1R-CRE-Luciferase-HEK293 reporter gene assay; antibody in PBS pH 7.4 at 40 C, Day 0 was 19.7 nM; the Average IC50, nM; hGLP-1R-CRE-Luciferase-HEK293 reporter gene assay; antibody in PBS pH 7.4 at 40 C, Day 10 was 20.6 nM; the Average IC50, nM; hGLP-1R-CRE-Luciferase-HEK293 reporter gene assay; antibody in PBS pH 7.4 at 40 C, Day 20 was determined as 18.4 nM; the Average IC50, nM; hGLP-1R-CRE-Luciferase-HEK293 reporter gene assay; antibody in PBS pH 7.4 at 40 C, Day 30 was found to be 18.7 nM. The IC50, inhibition of GLP-1 (2.5 ng/ml) activity in hGLP-1R-CRE-Luciferase-HEK293 reporter gene assay in experiment [2] was found to be 17.4 nM.
